# Where a name gives a salt, the structure may show the parent alone. Viability of KB3-1 and Nalm-6 cells after 48 h of drug alone (CellTiter-Glo), 11 doses over about 4.5 log units. % of DMSO wells, lower = more cell loss; AC50 from the fitted curve, lower = more potent. No active / inactive call. Nalm-6 was screened in two runs. AC50 is listed only for well-fitted inhibitory curves. KB3-1 is a HeLa-derived carcinoma line, Nalm-6 a B-cell precursor leukaemia line.
# What was measured:
# Nalm-6 = assay: viability (% of DMSO control); higher = more viable cells
# Procedure: (§1)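 Eleven-dose screen of the NCATS MIPE 3 library on cells without co-treatment; CellTiter-Glo after 48 h, as % of DMSO wells.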
# KB3-1 = assay: as above
# Procedure: as §1
Compound,"viability (Nalm-6; run: 1, 0.00078 µM) [%]","viability (Nalm-6; run: 1, 0.00234 µM) [%]","viability (Nalm-6; run: 1, 0.00702 µM) [%]","viability (Nalm-6; run: 1, 0.0211 µM) [%]","viability (Nalm-6; run: 1, 0.0632 µM) [%]","viability (Nalm-6; run: 1, 0.19 µM) [%]","viability (Nalm-6; run: 1, 0.569 µM) [%]","viability (Nalm-6; run: 1, 1.71 µM) [%]","viability (Nalm-6; run: 1, 5.12 µM) [%]","viability (Nalm-6; run: 1, 15.4 µM) [%]","viability (Nalm-6; run: 1, 46.1 µM) [%]","viability (Nalm-6; run: 2, 0.00078 µM) [%]","viability (Nalm-6; run: 2, 0.00234 µM) [%]","viability (Nalm-6; run: 2, 0.00702 µM) [%]","viability (Nalm-6; run: 2, 0.0211 µM) [%]","viability (Nalm-6; run: 2, 0.0632 µM) [%]","viability (Nalm-6; run: 2, 0.19 µM) [%]","viability (Nalm-6; run: 2, 0.569 µM) [%]","viability (Nalm-6; run: 2, 1.71 µM) [%]","viability (Nalm-6; run: 2, 5.12 µM) [%]","viability (Nalm-6; run: 2, 15.4 µM) [%]","viability (Nalm-6; run: 2, 46.1 µM) [%]",viability (KB3-1; 0.00078 µM) [%],viability (KB3-1; 0.00234 µM) [%],viability (KB3-1; 0.00702 µM) [%],viability (KB3-1; 0.0211 µM) [%],viability (KB3-1; 0.0632 µM) [%],viability (KB3-1; 0.19 µM) [%],viability (KB3-1; 0.569 µM) [%],viability (KB3-1; 1.71 µM) [%],viability (KB3-1; 5.12 µM) [%],viability (KB3-1; 15.4 µM) [%],viability (KB3-1; 46.1 µM) [%]
O=C(O)CC/C=C\CC[C@@H]1[C@@H](N2CCCCC2)[C@@H](O)C[C@@H]1OCc1ccc(-c2ccccc2)cc1 [Vapiprost hydrochloride],118,127,108,114,116,132,110,126,118,113,101,103,102,105,105,106,107,107,102,102,104,98.4,107,104,103,106,112,111,113,109,105,105,103
O=C(OCC#CCSc1nnc(-c2ccc3ccccc3c2)o1)c1cc2ccccc2s1,86.8,97.9,96.8,110,100,116,105,106,111,78.8,75.9,87.7,90.8,99.5,99.8,95.7,97.8,102,104,91.9,83.1,71.4,108,105,107,111,104,108,111,107,109,103,89.1
CCCc1nn(C)c2c(=O)[nH]c(-c3cc(S(=O)(=O)N4CCN(C)CC4)ccc3OCC)nc12.O=C(O)CC(O)(CC(=O)O)C(=O)O [Sildenafil citrate],86.1,80.3,101,101,104,105,111,111,116,117,105,113,113,112,109,114,114,99.9,110,110,109,99.9,103,97.9,99.6,103,100,103,100,100,97.2,98.4,97.6
N#Cc1ccc(C(c2ccc(C#N)cc2)n2cncn2)cc1 [Letrozole],112,118,118,123,130,117,121,112,111,106,95.8,101,105,106,107,107,101,103,101,99.6,96.1,80.7,109,106,105,109,107,107,108,109,105,103,103
CN(NC(=O)CC(=O)NN(C)C(=S)c1ccccc1)C(=S)c1ccccc1 [Elesclomol],102,84.1,73.1,84.4,86.5,91.6,90,89.4,96.6,97.7,75.6,112,80.4,61,74.5,86.1,99.7,111,105,106,101,65,105,109,101,100,98,108,103,101,102,98.6,101
O=C(NOC[C@H](O)CO)c1ccc(F)c(F)c1Nc1ccc(I)cc1F,102,118,112,107,106,105,101,103,104,95.2,78,106,106,99.6,96.2,103,103,99.8,99.6,99.2,97.1,84.9,92,99.8,92,92.5,93.8,89.6,92.8,93.1,99,92.5,93.2
NC(=O)c1ccc(N(C(N)=O)c2c(F)cccc2F)nc1-c1ccc(F)cc1F [VX-702],120,113,115,119,116,108,115,111,81.3,104,90.3,107,106,110,109,109,108,105,106,100,72,108,104,102,106,105,99.2,95,99.2,99.6,95.3,92.9,91.5
OCCn1cc(-c2ccc3c(c2)CC/C3=N\O)c(-c2ccncc2)n1,116,115,110,109,102,104,105,113,119,105,89.3,106,104,106,93,101,105,107,101,99.7,107,98.3,99.4,102,95.6,102,101,110,109,111,103,102,88.1
CNC(=O)c1ccc(N2C(=S)N(c3ccc(C#N)c(C(F)(F)F)c3)C(=O)C2(C)C)cc1F [MDV-3100],66.4,77.2,88.3,97,99.5,109,104,104,106,97.2,78,106,106,104,112,106,110,110,101,107,102,87.8,96.4,100,102,106,108,103,96.9,95.8,98.2,93.6,73.9
CC/C=C\C[C@H]1C(=O)CC[C@@H]1CC(=O)OC [methyl jasmonate],100,111,108,109,121,117,117,114,121,115,104,107,108,103,106,112,109,103,102,105,104,101,107,105,103,104,108,109,105,103,99.5,104,106
Cn1cnc2c(F)c(Nc3ccc(Br)cc3Cl)c(C(=O)NOCCO)cc21 [Selumetinib],114,121,113,105,112,105,107,102,104,81.5,92.1,112,108,109,97.7,106,106,106,101,83,99.8,88.9,97.7,101,96.8,96.1,95.9,99.5,95.8,90.9,96,92.8,87.3
CCCCC/C=C\C/C=C\C/C=C\C/C=C\CCCC(=O)NC1CC1 [ACPA],94.1,98.1,110,106,105,120,112,119,108,109,108,96.8,98.1,108,104,113,98.8,104,110,107,97.5,103,101,104,101,104,102,103,106,106,100,100,85
